About 2,200 (0.71%) of roughly 310,000 compounds showed an effect of 50% or more. The effect is printed as a negative number. Some of the results follow.
Biological target: human ether-à-go-go-related gene (hERG) potassium channel (human, UniProt Q12809)
Assay: primary screen, population patch clamp on CHO cells stably expressing hERG

human ether-à-go-go-related gene (hERG) potassium channel, sequence (Q12809 whole entry, looked up): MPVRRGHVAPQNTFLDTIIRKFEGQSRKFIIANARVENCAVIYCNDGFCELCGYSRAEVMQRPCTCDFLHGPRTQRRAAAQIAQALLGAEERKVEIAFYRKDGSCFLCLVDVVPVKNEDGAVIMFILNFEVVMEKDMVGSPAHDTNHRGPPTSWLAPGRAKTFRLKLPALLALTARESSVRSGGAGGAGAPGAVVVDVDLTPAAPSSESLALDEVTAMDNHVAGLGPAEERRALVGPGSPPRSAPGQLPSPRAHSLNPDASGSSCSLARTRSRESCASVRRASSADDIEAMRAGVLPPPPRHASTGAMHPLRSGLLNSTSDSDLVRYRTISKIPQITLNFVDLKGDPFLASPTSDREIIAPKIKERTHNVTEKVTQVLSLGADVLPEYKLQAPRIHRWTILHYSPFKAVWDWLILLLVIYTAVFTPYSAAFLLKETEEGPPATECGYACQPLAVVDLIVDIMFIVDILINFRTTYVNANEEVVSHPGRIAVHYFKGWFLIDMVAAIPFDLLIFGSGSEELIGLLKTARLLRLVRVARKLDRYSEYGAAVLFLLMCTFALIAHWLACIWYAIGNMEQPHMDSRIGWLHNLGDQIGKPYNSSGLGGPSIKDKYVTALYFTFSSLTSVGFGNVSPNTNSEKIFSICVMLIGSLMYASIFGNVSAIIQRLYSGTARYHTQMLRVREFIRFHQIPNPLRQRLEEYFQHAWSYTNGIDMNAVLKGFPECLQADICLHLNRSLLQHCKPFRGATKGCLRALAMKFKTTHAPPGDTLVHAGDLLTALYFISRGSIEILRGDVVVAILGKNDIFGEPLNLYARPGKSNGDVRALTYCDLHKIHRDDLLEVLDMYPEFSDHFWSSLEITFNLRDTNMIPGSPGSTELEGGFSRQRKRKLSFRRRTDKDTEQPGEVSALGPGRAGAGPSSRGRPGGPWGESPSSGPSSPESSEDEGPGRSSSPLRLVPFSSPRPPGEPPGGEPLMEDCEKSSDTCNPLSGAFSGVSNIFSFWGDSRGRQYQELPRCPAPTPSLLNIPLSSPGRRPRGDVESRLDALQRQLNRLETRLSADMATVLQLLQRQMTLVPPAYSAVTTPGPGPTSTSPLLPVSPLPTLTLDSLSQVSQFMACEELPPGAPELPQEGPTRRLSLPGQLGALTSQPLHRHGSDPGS

SMILES | hERG current change (%, negative = inhibition) at 1uM
COCCNC(=S)N(CCc1c(C)[nH]c2ccccc12)Cc1ccco1 | 5.58%
CC(C)NS(=O)(=O)c1ccc(NC(=O)C(C)OC(=O)CCC(=O)c2cccs2)cc1 (stereo not drawn) | 12.6%
CCOC(=O)Nc1cc(C(=O)OC)cc(C(=O)OC)c1 | 9.12%
CC(CS(=O)(=O)c1ccc2c(c1)NC(=O)CS2)C(=O)N1CCN(c2cccc(Cl)c2)CC1 (stereo not drawn) | -2.97%
COC(=O)Cn1c(Cc2ccccc2)nc2ccccc21 | 3.36%
OC1(c2nc3ccccc3[nH]2)CCCCC1 | 10.5%
Cc1ccc(S(=O)(=O)NCCN2CCN(S(=O)(=O)c3ccccc3Cl)CC2)cc1 | 5.88%
CCC(C)NS(=O)(=O)c1ccc(OCC(=O)NCc2ccc3c(c2)OCO3)cc1 (stereo not drawn) | 10.4%
O=C(O)c1ccccc1C(=O)NNc1ccc(Cl)cc1 | 13.2%
N#C/C(=C\c1c(N2CCC(C(N)=O)CC2)nc2ccccn2c1=O)C(=O)NCc1ccco1 | -10.1%
O=C(NCC(=O)N1CCCCCCC1)c1ccc(Br)o1 | 4.93%
CC1CCN(CC(C)OC(=O)c2ccco2)CC1.Cl (stereo not drawn) | 11.3%
Fc1ccc(-n2c(-c3ccco3)nc3nc4ccccc4nc32)cc1 | -2.19%
CCOc1ccc(NC(=O)CC2C(=O)N(c3ccccc3)C(=O)N2Cc2ccco2)cc1 (stereo not drawn) | 2.9%
Cc1ccc2[nH]c(O)c(N=NC(N)=S)c2c1 | 8.68%
CCOC(=O)C1(C)NC(c2ccccc2F)C2C(=O)N(c3cccc(C(C)=O)c3)C(=O)C21 (stereo not drawn) | 15.4%
CC(=O)Cc1nsc(NC(=O)c2cc(-c3cccc(C(F)(F)F)c3)oc2C)n1 | 9.34%
CCn1c(=O)c2cc(C(=O)NCCOC)sc2c2ccccc21 | 10.9%
COC(=O)c1[nH]c2c(c1C)C(=O)CC(c1ccc(OC)c(OC)c1)C2 (stereo not drawn) | 8.15%
COc1cccc(CNc2nc3nc4c(c(=O)n3[nH]2)CCC4)c1 | 0.788%
COc1ccc(C(C)(C)NC(=O)C2CCC(=O)N(C3CCCC3)C2)cc1OC (stereo not drawn) | 8.43%
COC(=O)CNC(=O)c1ccccc1C | 12.3%
CSCCC(NC(=O)c1ccco1)C(=O)OC(C)C(=O)NC(=O)NC1CCCCC1 (stereo not drawn) | 10.4%

SMILES | hERG current change (%, negative = inhibition) at 1uM
COCCCNC(=S)NC(=O)c1ccccc1 | 18.6%
COc1ccc(NC(=O)c2ocnc2C)cc1OC | 18.5%
O=C1CN(C(=O)COc2ncnc3ccccc23)c2ccccc2N1 | 1.16%
CCOc1ccc(C(=O)Nc2cc(S(=O)(=O)Nc3ccccc3Cl)ccc2N2CCOCC2)cc1 | 10.4%
NC(=O)c1ccc(C(F)(F)F)n(Cc2ccccc2Cl)c1=O | 12.9%
O=C(CCc1nnc(Cc2ccc3c(c2)OCO3)o1)NC(c1ccccn1)C(F)(F)F (stereo not drawn) | 15.5%
O=C(Cn1c(=O)[nH]c2ccccc2c1=O)Nc1cccnc1 | 13.7%
Cc1ccc(OCC(=O)Nc2ccc3c(c2)OCO3)cc1C | -1.57%
CC(=O)Oc1ccc(C(=O)Nc2cccc(NC(=O)c3ccco3)c2)cc1 | 8.02%
CCn1c(SCC(=O)NCCOc2ccccc2)nc2ccccc2c1=O | 10.3%
CC(C)(C)NC(=O)N1CCN(c2nc3ccc(Cl)cc3s2)CC1 | 5.29%
CN(Cc1ccccc1)C(=O)COC(=O)C1=NNC(=O)CC1 | -7.2%
N#CCCN(Cc1ccncc1)C(=S)NC1CC2C=CC1C2 (stereo not drawn) | 10.7%
CCN(CC)S(=O)(=O)c1ccc2c(c1)N(CC(=O)N1CCC(C(N)=O)CC1)C(=O)CO2 | 15.9%
CC(=O)CSc1ccc(-c2nc3ccccc3[nH]2)cn1 | 9.85%
Nc1nnnn1/N=C/c1ccco1 | -3.15%
CCS(=O)(=O)c1ccc2oc(Nc3cccc(OC)c3)nc2c1 | 13.6%
CCOC(=O)CNC(=O)CSc1ncnc2c1cnn2-c1ccc(OC)cc1 | 4.27%
CCCC[C@@H]1CN=C(N)N1CC(C)(C)C | 13.5%
CCCC(O)(CCC)C(=O)NN1CCCCC1 | -3.3%
CCCCC(Sc1nc(C)c(Cc2ccccc2)c(=O)[nH]1)C(=O)O (stereo not drawn) | 19.4%
COc1cc(/C=C(/C(=O)c2cccs2)c2nc3ccccc3[nH]2)ccc1O | 1.74%

— paper PMC4336329 (PLoS ONE, 2015)
